Sequences with one replicate were seen in a single cluster, so their values are uncertain.
Test system: ATP
Assay: switch fluorescence ratio, 500 uM ATP over buffer (Cy3 cluster intensity, sum of 5 cycles each) (fold (ratio)); higher = stronger signal-on switching upon ATP binding; sequences stand for … in TCGTCGGCAGCGTCAGATGTGTATAAGAGACAGTTTTTTTTTTTTTTTTTTTTTTTTT…TC
Details: aptamer strand: ATP DNA aptamer (quencher-CACCTGGGGGAGTATTGCGGAGGAAGG + anchor), 100 nM annealed; ATP concentration: 500 uM; one replicate
In short: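 The quencher-labelled ATP aptamer, at 100 nM, was annealed to Cy3-labelled switching-strand clusters on a modified Illumina MiSeq flow-cell. The clusters were imaged in selection buffer, then after 15 min with 500 uM ATP at 22 °C, and this buffer/ATP cycle ran five times with NaOH stripping and re-annealing between runs. Per-cluster fluorescence ratios, summed target-cycle over summed buffer-cycle Cy3 intensity, were averaged per switch-domain sequence. Clusters outside 100-1000 RFU were excluded.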
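Also: ATP exposure 15 min at 22 °C before imaging.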

Sequence	switch fluorescence ratio
GGCCCGTACA	1.01
AGTACAGGAG	1.01
CAGGACGGTA	1.09
GTGAATACTA	0.999
CACTAATTGT	0.996
AAGTGCATCG	0.987
TCAGCTCTTA	1.07
TAAAAAACTC	1.1
TTGCTAATTG	0.981
TGCAGCAGCA	1.02
GTTGTTGCGA	1.01
CACGGGCAAA	1.02
ACAAGGTATG	1.05
TGTGGAGTGT	0.976
CCCCAATAT	4
CATGGTTATA	1.03
TACGATGGGG	1.03
TACGACCGCC	1.78
ATCCCATACT	1.19
AGCGTCCGAT	1.06
TGTCAGGGTG	1.09
GCTGCATAAT	1.06
TCGGCGACGT	0.98

Sequence	switch fluorescence ratio
GCTTTGTACC	1.03
CAACGTGGTA	1.01
CTGGACATAG	1.03
TTGATACCCT	1.03
TAATCGCAAT	4.35
GGATGTCATC	1
TAATCCCAGC	1.03
GGCTAATTT	0.989
TACGCTCGGA	1.02
CGTTTGATAC	1.71
CACTTGGCGA	1.01
GGCGCGGGTC	0.985
GTTGGCTGCA	1.02
TGCTACAAAG	1
TTTCTATCTT	0.978
TATGCTCATC	0.978
TTAGGCCTGA	0.972
GGATGATAGG	1.03
GTCCCGGGTA	1.02
AAATTCACAT	1.03
CTGATAGTTC	0.961
TGTGCATGCA	0.946
ATCGGTGGAT	0.992

Sequence	switch fluorescence ratio
CAAATTGGG	1.01
TTCTAGAGGT	0.971
CCTCTTAGTT	1.06
TGTGGGGCTC	0.987
TACTGAGCCC	1.03
TACCACCGTG	1.05
CCTGTAGGTG	1.63
GGGAATGAAG	1.01
TGCGGCTGCT	0.966
CTGAACTTGA	1.01
AGTTGGATGG	0.978
GGGGCTAAAA	1.03
GGTAATTAGG	1.01
ATAGAGTCCT	0.958
AATCCGAGA	1.07
GATTGATG	1
CATATCTAAT	1.02
TTTTCGTGTC	1
AATTGCGCTG	0.896
GGTCGTGGTC	1.01
CAGAAAATTA	1.15
TTCATTATAT	1.03
CAGGCAGGTT	1.03

Sequence	switch fluorescence ratio
ACAAGGATGT	0.985
ACTCCTGTTT	1.14
GAGCTAACTC	1.16
ACAGGTAAAG	0.991
CGATAAAGAT	1.01
ACTTGAATGG	0.997
TGACTTTTTT	1
TCAGCAAGCA	1.6
AATCATCCGA	1.03
ATCGCACCCT	1.19
GATCCGGGCA	1.03
AGGAGAGTAA	1.01
AGAAAGGGTA	0.956
GGTCCCGGCT	0.926
ATAGAGGCCA	1.03
TGTGCCTCGA	0.983
GGTTGCAGTT	0.995
CTAGAAGACA	0.998
CTTTACTCTT	0.998
ACAAATGTCA	0.993
GATATCTCAT	0.948
CGCGTCGGCA	1.01
AGTATAAG	1

Sequence	switch fluorescence ratio
ATGGTGCATT	1.06
CGATTATTCA	1.01
CACTATGAGC	0.973
GTGGGGACAA	0.995
GATCTTGTTA	1.05
GGACGTTACA	1.61
GGCATTTAA	0.994
CTTTCAATAG	1.53
CCCCCATGGA	1.91
GAGGGTAGAA	0.971
GGATACGCTT	1.14
TCATCGGTAT	1
GTCGGAAAG	0.964
CTGTAGTTAC	3.85
GGTCAGGACG	0.921
GACTGTCCCG	1.04
CCGCGAACAG	2.57
TCGACAGATG	1.06
GATATTTACG	0.977
GAGTCTTACT	1
CTACAGGTGC	2.51
GATTCAGTGT	0.972
CCCCCAGATT	1.84

Sequence	switch fluorescence ratio
TGACGGACTG	1.03
GATCGCCATT	0.994
TCTAATGATG	0.95
GGCTCAGTT	1.02
GTCAGAGGAC	0.929
GGTCCGCGCC	1.36
CTGAAGCTTT	1.85
CATGGCACGG	1.07
TAAGAGTTAT	1.06
GCCGTTCATT	1.04
TCTAAACTGT	1
CCACGTCCTG	1.03
ATATTCTTT	1.01
AGCCAGGAGT	1.08
CAGTCGCACT	1.17
TTATAGGAAA	0.986
TTACGATCAT	1.05
CGTGCTTGA	1.08
GCGTCGTTTG	0.998
TAAACACGTT	1.02
AGGTCGTGAT	0.977
ACATCAGATT	1.01
CTTTACGTTT	1.02

Sequence	switch fluorescence ratio
TGCCAGATGT	1.02
ATAGTCAG	1.02
GACCTAACGA	1.44
GCCTGGAGAG	0.968
GCATCACGCT	1.07
TGTTATTGTC	1.03
TAACGACAC	1.66
GCATGGCACT	1
GCTTATTGGT	0.94
ATTTTGTCCG	1.02
CCACGGTTTT	1.14
CTAACTTTTT	1.07
TTGTGTTTCC	0.987
TAAGTCATCT	1.02
TTTTAATAG	0.985
GGGGTCTTCA	1.04
AGGGGACGGT	0.999
GCCCTGTAGA	1.06
GATACATTTC	1.05

Reference: the supplement of paper PMC10126150
